Source: paper PMC6212790
This is one part of the list. At the low end of the ranking the order means little.

target: T1, GST-Rok (full length) (UniProt O34857); assay: protein binding microarray; settings: Rok is a gene silencer of Bacillus subtilis; high values mean tight binding; most listed sequences are background and not binding sites; double strand, one strand shown;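 further: rank score from −0.5 (least bound) to 0.5 (best bound)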
T1 sequence: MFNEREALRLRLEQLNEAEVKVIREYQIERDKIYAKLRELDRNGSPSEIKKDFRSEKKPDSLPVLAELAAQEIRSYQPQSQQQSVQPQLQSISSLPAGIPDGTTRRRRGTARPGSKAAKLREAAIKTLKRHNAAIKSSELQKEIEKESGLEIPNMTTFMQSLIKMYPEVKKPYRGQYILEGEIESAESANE

Sequence | binding signal [E-score]
CACAGGTG | -0.275
GCGCTTAA | -0.00677
TAGAATCA | 0.253
CAAGACAA | -0.0166
CCACTGGC | -0.258
GAGAGGGA | -0.2
GCTCCCAA | -0.324
AATGTTCA | 0.318
AGTTAAGG | 0.07
TCACGCCA | -0.0759
GAACACGC | -0.13
AATCACCT | 0.0136
AGTCGTTG | -0.152
GACGGAAA | 0.0694
CTCGGCTC | -0.334
CTCCACCA | -0.0837
TCTTTCCA | -0.0837
AGCCGCAA | -0.265
TCCATGGA | 0.0494
CTAACGGC | -0.228
ATCAGAGG | -0.0388
ATTATTGG | 0.122
TCTGGACA | -0.0137
AAGACCTT | -0.148
ATCGTCGC | 0.00745

Sequence | binding signal [E-score]
CAAGCGCA | -0.0982
GGGAGTAA | -0.218
AGCTTACG | -0.0197
CGATCAGA | -0.0547
GCTTTAGA | 0.0315
GGGTACAA | 0.0328
CATAAGAC | 0.0735
GGCCGACC | -0.303
CCACCACG | -0.243
AGCTTATG | -0.0757
GAATATAC | 0.306
AGTGAGGC | -0.116
CAAGGGTC | -0.201
GATCGATC | 0.136
AATTCAGG | 0.0372
CTAGTTAC | 0.418
AAAGCTTG | -0.0609
ATCAGCTC | 0.014
TTAAGAAA | 0.0666
AGTCCCTC | -0.272
AACCCAGC | -0.136
CGGGGCAA | -0.152
ACGAGTGA | 0.0885
GGTAGACA | 0.0655
AGATAGCG | 0.22

Sequence | binding signal [E-score]
CACCACTA | 0.0926
AAAAGTGG | 0.0883
GCGGGCAA | -0.178
AAACGATA | 0.119
CATTCAAG | -0.00822
GTGAGTGA | 0.115
AACAAACT | 0.0328
CTCATCAG | 0.0181
AACGCGCG | -0.0168
CGAGACCG | -0.288
GAACTAAA | 0.23
TCCTAGCA | -0.0486
AAACTGCC | -0.0758
CGGGTAAA | -0.0723
GAAGCTTA | 0.0154
ATAGACGG | -0.147
CAGAAACG | 0.0372
GATAGCCC | -0.225
ACCGACGC | -0.109
CAATCGTG | -0.0317
CGCAAGCA | -0.18
CCCTAAAA | -0.201
CCGACTCG | -0.125
ACTCCTAT | 0.122
CCCGACAG | -0.119

Sequence | binding signal [E-score]
TGGGAAAA | -0.0408
AGATCCTG | 0.0544
AAGACAGA | -0.00818
CATATACG | 0.261
CATTCTCA | 0.0256
GAGGAACA | -0.272
CGAGGACC | -0.0226
CTATCTTA | 0.182
ACGCTAAA | 0.119
CGTCAAGA | -0.143
CAATACCC | -0.0924
CTCAACGA | -0.0344
CGCACACG | -0.218
TATCTGAA | 0.137
TCGGATAA | 0.0263
TAGTTCAA | 0.152
GCTCTGCC | -0.392
AGCGTGAG | -0.0889
AAATGAAT | 0.162
CTTGCCTC | -0.0866
ACTTCTGC | 0.0927
ACCGATCC | -0.198
TGTTACAA | 0.149
CACTGTGC | 0.0146
ACGGTGGA | -0.0364

Sequence | binding signal [E-score]
AAGTGCCC | -0.205
AGGCCTAA | -0.171
GCGTCATA | 0.0323
GTCATTAA | -0.131
GCCTGCTA | -0.148
AACCGGTT | 0.00681
TGAATGCA | -0.082
GTTCTTTA | -0.182
CAGCTAGG | -0.26
CTATTTTA | 0.325
ATTAGGCA | 0.014
GAGCGCCC | -0.362
GGGATTAC | -0.141
ATTTTATG | 0.251
CGACTCTA | -0.135
AGTTACCG | 0.0981
CTCTTTGC | -0.326
AAAGCCGA | 0.118
CGCAGACG | -0.361
CTGTAAGC | -0.197
ACGGGGAA | -0.142
TACTAGGA | 0.183
CATCATCC | -0.0759
CGGTATGA | 0.0833
TATACACA | 0.2

Sequence | binding signal [E-score]
GCTAGTAA | 0.294
CTTTCAAC | -0.0275
AAATCATC | 0.0641
CCCAGCTC | -0.326
CCGCTTCG | -0.16
TCTCGCAA | -0.122
TAATCATA | 0.158
TGTTGCAA | 0.238
CCGGCATA | -0.142
CGTGTCAG | -0.313
AATTCTGT | 0.206
GTGGGAAC | -0.105
ATACGCGG | 0.0392
AACGACGA | 0.183
ATACACTA | 0.303
CGCAAGTA | 0.111
ATTCTCGG | 0.0396
AGGCTACT | 0.0884
GATTGGCC | -0.113
ATGGGGGA | -0.306
CGGGCCGC | -0.361
GGCGGGTA | -0.394
AACTTAAA | -0.0208
CGCCTACA | -0.0321
ACGTAAAT | 0.323

Sequence | binding signal [E-score]
AGGATACA | 0.105
AGAATGTG | 0.117
AAACTAAT | 0.332
ATTGGGTC | -0.215
GTACAGGA | 0.0953
CTATTGCC | -0.0546
AGCAAGTA | 0.141
TAGTATAA | 0.404
GCGTGAAA | -0.0739
GGCGCGGA | -0.296
GCTTATGA | -0.198
GCATCACA | 0.106
CGTCTGAG | -0.283
CGAGGACG | -0.293
TCGTCTCA | -0.0794
TACACGCA | 0.184
GAAAAGGC | -0.21
AACCGCTC | -0.259
CACGATAA | 0.0955
CACTGAAC | -0.0415
CCATCTTA | -0.0399
AAAATCAC | 0.0989
CGATTATC | 0.0989
AAGGTCGA | 0.128
GCGTTGAC | -0.111

Sequence | binding signal [E-score]
AGCGCCAC | -0.234
CAGTCGGC | -0.129
CCGGGAGC | -0.319
CCGGGTGA | -0.144
AAAACTCT | 0.171
TCTTTTAA | 0.0192
CACCACAG | -0.0169
ACATGTTC | 0.192
CATTCGAC | -0.0252
ACGGATTA | -0.0254
ACCTCAGT | -0.0504
ACGACGGC | -0.23
GGCACCAC | -0.0944
GTCTGAAA | 0.0376
AATCCAAT | 0.104
GCAATAAA | 0.143
AGACGGCC | -0.0687
GACCGTAC | 0.126
CTAGTGAC | 0.0381
ATGGCAGG | -0.18
AGCGGGAC | -0.3
AAGGCGAT | -0.125
AGGGGACT | -0.307
CATTCTTA | 0.155
CTTTTCTA | 0.219

Sequence | binding signal [E-score]
GCACTCAA | -0.134
AACATCGG | -0.0495
ATCTCCTA | 0.104
AGGTGTAC | 0.0376
AGGTCTGA | -0.175
ACCAGTTC | -0.0883
GCCAAGCC | -0.104
CGTGCACA | 0.0495
GTCTCGTA | 0.0282
CTCCTTGA | -0.123
CGACTGCA | -0.147
GAACTAGA | 0.36
AAATGCAT | 0.178
ATGTCATG | 0.0366
GCACATCC | -0.057
CGTGGTAC | 0.0445
AGTAAAAA | 0.29
ACGTCATC | -0.0835
CACAAATA | 0.35
GATATTTA | 0.351
ATGTAGAG | 0.199
CCCAGCTA | 0.0531
TATTTAGA | 0.138
ATAGAATC | 0.254
ATGGCGAA | 0.105

Sequence | binding signal [E-score]
CGCCCTAG | -0.229
ACTCTCCT | 0.00831
ACCACATC | -0.0356
AAACCCGG | -0.0892
CTGTCAAA | -0.00642
ATTCGTCA | 0.141
AAAGACCC | -0.113
GATGCGCC | -0.207
CCTAGTCA | -0.164
ATCTTTTG | -0.0831
ACCTGACT | -0.18
ATGGACAA | -0.0253
ACACGTCT | -0.101
CGACCTAC | -0.115
GAGATGAC | -0.0605
AGAGAATA | 0.0988
GCACCCTA | 0.00434
CCACTACG | -0.00677
CTTTTCCC | -0.247
ACACCTTG | -0.19
AAACCTGC | -0.197
CCAGCGTC | -0.23
ATAATGAA | 0.193
CAAGTTGA | -0.087
ATAGGTGG | 0.0151

Sequence | binding signal [E-score]
CCGCTCTA | -0.0889
CGAGACGC | -0.297
AAATAATT | 0.312
ATCGGGTG | -0.102
CCTCCGAA | -0.131
CAGCACGG | -0.2
TGTATCAA | 0.253
AGCCGGGG | -0.231
CTATCCTC | 0.0731
GACGGTTA | 0.0128
CCGAGGGC | -0.416
AAGGATAG | 0.115
GACGCTAA | 0.0755
CCCGTTAA | -0.0855
CGTTGGCC | -0.219
AGCAAGCT | -0.126
ATAACACA | 0.165
CAGTATCC | -0.126
AGCAGAAC | 0.0117
AGTCGAGG | -0.0571
AGGAGCAA | -0.16
CGCTCATA | 0.0172
AAGTAGAA | 0.305
GAACAGCC | -0.152
GAGAGATA | 0.0854

Sequence | binding signal [E-score]
ACCATCAG | 0.0145
AGCCTGTC | -0.125
CGAGGTCA | -0.271
CATTCCCC | -0.366
CATTTTCC | -0.0597
CAATGTAA | 0.0505
CATTTTGG | -0.0155
CCCGTATA | 0.055
GTTATCTA | 0.285
AATCTACT | 0.432
GCAGACGA | -0.159
CAAAAATC | 0.00179
CTAAAAGA | 0.217
TAAACGCA | -0.0851
ACAAATTA | 0.338
AAAAGTAA | 0.104
CGACACCA | 0.106
AGTTTTCC | 0.109
CATTGTAC | 0.175
AGGTCCCG | -0.184
AGGCTAAC | 0.0196
AATAGCGT | 0.0506
ACGACTTC | 0.0651
CTCTGGTC | -0.00712
AGTGCATA | 0.021

Sequence | binding signal [E-score]
ACCATCTG | 0.19
ACCATAAC | 0.158
CTAAAAAA | 0.00115
GTGGCGCA | -0.303
CCGGATTA | 0.061
AATACTGA | 0.188
CTTCAGAA | -0.0131
GCGTGCCC | -0.358
CGATTTAG | 0.109
GACGCCAC | -0.163
CTCGCCAG | -0.0875
ATATTATG | 0.111
GTACCCAA | 0.0522
ATGTATAG | 0.244
ACTTCATG | 0.0707
GAATCGTA | 0.192
ACGACGTC | -0.00233
CCACTAGA | 0.151
ATCTTGTA | 0.251
AACGGCGT | -0.0861
ACAAACGC | -0.21
ATGACGCA | 0.00313
CAGCCTCA | -0.155
TACCTGCA | 0.000163
AAAGCCTG | -0.18

Sequence | binding signal [E-score]
GGCGATAA | 0.098
GGCACTAA | 0.0305
ATAGTAAT | 0.392
GAACCTGC | -0.337
CCCGTTCC | -0.151
ACCATGTC | -0.0499
CCCTCTAC | -0.341
AACGGGTC | -0.157
ACATTACG | 0.191
AACCCAAC | 0.212
GACAACCA | -0.0247
GAGTTACC | 0.208
GTCCAATA | -0.047
AGGGCGTA | -0.327
GTGGGTAA | 0.142
TATTGTGA | 0.188
ACCGAGAG | 0.0653
TCGGTACA | 0.201
CGGACTAG | 0.0761
